Experimental data as given in PubChem BioAssay AID1814 (Broad Institute, 2009).
Screen size: about 300,000 compounds; about 22,000 (7.3%) were called active. The shares of active, inactive and inconclusive entries below differ from those in the screen. Cut-off read from the data, not from the text of the source: active = activity score below about -60%; inconclusive = mostly about -28% to -61%; inactive = positive scores.

assay: Activators via SNCA 5'UTR binding, MLPCN (AID 1814); conditions: alpha-synuclein 5'UTR reporter, activators screen; active compounds read low; tested at 7.5 µM

SMILES | activity score
COc1ccc(N2CCN(c3nc4ccc(C)cn4c(=O)c3C=O)CC2)cc1 | inconclusive: -61.3%
COc1ccc(/C=C/C(=O)c2cc(F)ccc2OC(=O)c2ccccc2C)cc1OC | inactive: 82.1%
CCOC(=O)c1ccc(Cl)c(NC(=O)c2ccc(-c3ccccc3)cc2)c1 | inconclusive: -56.5%
C=CCN1/C(=C(\C#N)C2=NS(=O)(=O)c3ccccc32)N(C)c2ccccc21 | inconclusive: -38.2%
CC(O)CNCCCCOc1ccc(OCc2ccccc2)cc1 (centres undefined) | active: -93.3%
CCOC(=O)c1ccc(-c2cccc(C(F)(F)F)c2)nc1C | active: -122%
Cc1ccc(/C=N/NC(=O)c2c(C)nc3ccc(Br)cn23)cc1 | inactive: 80.5%
O=C(/C=C/c1ccccc1O)c1ccco1 | inconclusive: -53.8%
Cc1cc(C)cc(NC(=O)CCc2c(C)nn(-c3ccc(N4CCCCC4)nn3)c2C)c1 | inconclusive: -55.5%
O=C(CCSc1ccc(Cl)cc1)c1ccco1 | inconclusive: -50.4%
Cc1nc(NC(=O)CSC2=NCCS2)sc1C(=O)N(C)C | inconclusive: -60.1%
CCOC(=O)Nc1nc(-c2ccccc2)c(C(=O)c2ccc(Cl)cc2)s1 | inactive: 114%
COc1ccc(NC(=O)COc2ccc(Br)cc2)c(OC)c1 | inconclusive: -60.5%
O=C(/C=C/c1ccccc1)NC1CCSC1=O (centres undefined) | inconclusive: -58.5%
COc1ccc(S(=O)(=O)N2CCOCC2)cc1NC(=O)CCNC(=O)c1ccc(Br)cc1 | inactive: 76.6%
CC(C)Oc1ccc(-c2cc(C(=O)NCCN3CCOCC3)c3ccccc3n2)cc1 | inconclusive: -49.9%
O=C(N/N=C/c1cc2c(cc1Cl)OCO2)c1cccc(Br)c1 | inconclusive: -52%
CCOC(=O)c1cnc2c(OC)cccc2c1N1CCN(c2ccccc2OC)CC1 | inactive: 62.4%
Cc1nn2c(-c3cccnc3)ccnc2c1-c1ccccc1 | inconclusive: -51.5%
COc1ccc(NC(=O)c2oc3ccccc3c2C)cn1 | inconclusive: -60.1%

SMILES | activity score
c1ccc2[nH]c(-c3ccc4c(c3)OCO4)nc2c1 | inactive: 78.5%
Nc1ccc2c(c1)nnn2-c1ccccc1 | inconclusive: -55.2%
Cc1[nH]n(-c2ccccc2)c(=O)c1N=Nc1ccc2c(c1)OCO2 | active: -214%
Cc1ccc(C(=O)Oc2oc(-c3ccco3)nc2C=Nc2ccc(Cl)cc2)cc1 | inconclusive: -54.3%
CCOC(=O)c1cnc(Nc2ccc(OCC)cc2)nc1C | inconclusive: -59.5%
CCn1cc(/C=N/NC(=O)COc2cccc3cccnc23)c2ccccc21 | inconclusive: -60.2%
O=C(NCCSCc1ccco1)Nc1ccccc1 | inconclusive: -60.7%
COCCNC(=O)c1cc2cc3ccc(OC)cc3nc2o1 | inconclusive: -50.4%
COCCn1c(C)cc(C2=NNC(=Nc3ccccc3F)SC2)c1C | inactive: 91.4%
COc1ccc(-c2nn(-c3ccccc3)cc2/C=N/NC(N)=S)cc1OC | inactive: 90.2%
Fc1cccc(/C=N/Nc2ccccn2)c1 | active: -277%
N#Cc1cccc(-c2nnc(SCc3ccccc3C#N)o2)c1 | active: -65.2%
Cc1ccc2c(c1)c1ncnc(N3CCc4ccccc4C3)c1n2C | inconclusive: -59%
Brc1ccccc1OCCCOc1cccc2cccnc12 | inconclusive: -54.8%
O=C(N/N=C/c1c(O)ccc2ccccc12)c1cccc(C(F)(F)F)c1 | inactive: 111%
O=C(Cn1cc(C(F)(F)F)ccc1=O)Nc1ccccc1 | inconclusive: -55.1%
COc1ccc(Nc2nccc3c2ncn3C)cc1 | inactive: 21.3%
CC(=O)O[C@H]1C(=O)[C@]2(C)[C@H]([C@H](OC(=O)c3ccccc3)[C@]3(O)C[C@H](OC(=O)[C@H](O)[C@@H](NC(=O)c4ccccc4)c4ccccc4)C(C)=C1C3(C)C)[C@]1(OC(C)=O)CO[C@@H]1C[C@@H]2O | inactive: 95.3%
COc1ccc(-n2nnnc2SCC(=O)NNC(=O)c2ccc([N+](=O)[O-])cc2)cc1 | inconclusive: -46.4%
CC(C)NC(=O)CCc1nnc(Cc2cccc(C(F)(F)F)c2)o1 | active: -94.6%

SMILES | activity score
CCOc1ccc(C(=O)Nc2cc(C)ccn2)cc1 | inactive: 65.5%
Cc1ccc(NC(=O)C(=O)NN=C2CCCC2)cc1C | inconclusive: -39.4%
Nc1cc(=O)[nH]c(SCCSc2ccccc2F)n1 | inactive: 67.4%
C/C(CC(=O)Nc1ccc(N(C)C)cc1)=N\NC(=O)c1ccccc1F | inconclusive: -40.2%
CCOc1cccc(-c2c(C(=O)N/N=C(\C)c3ccccn3)nnn2-c2nonc2N)c1 | inactive: 90%
Cc1cccc(NC(=O)c2cnccn2)c1 | inconclusive: -54.6%
Cc1nc2ccc(NC(=O)c3ccc4ccccc4n3)cc2s1 | active: -71.1%
CC(C)(O)c1ccccc1CC[C@@H](SCC1(CC(=O)O)CC1)c1cccc(/C=C/c2ccc3ccc(Cl)cc3n2)c1 | inconclusive: -48.2%
O=C(Nc1cccc2cccnc12)c1cccnc1 | inconclusive: -50.5%
Oc1ccc(C[C@@H]2CNCCN2CC2(c3ccccc3)CC2)cc1 | inconclusive: -23.6%
O=[N+]([O-])c1cc(C(F)(F)F)ccc1-n1nnc2ccccc21 | inconclusive: -55.1%
Cc1ccc(NC(=O)CCN2CCCCC2)cc1 | inconclusive: -61.3%
CCOC(=O)c1sc2nc(-c3ccccc3)ccc2c1N | inconclusive: -23%
Cc1ccc(CN2CCN(CC(=O)N/N=C/c3ccccc3F)CC2)cc1 | active: -62.7%
O=C(COc1ccccc1)NCC(=O)N/N=C/c1cc(Br)ccc1OCc1ccccc1 | inconclusive: -58.3%
Fc1ccc(/C=N/Nc2nccnc2Cl)cc1 | active: -120%
C/C(=N\NC(=O)c1c(C)nc2ccccn12)c1ccc(O)cc1O | inactive: 83.5%
CC1CCN(C(=O)Cn2nc(C(F)(F)F)c3c2CCCC3)CC1 | inconclusive: -47.9%
COC(=O)c1cnn(-c2cc(Oc3ccccc3)ncn2)c1N | active: -127%
